According to ChEMBL document CHEMBL4888484, “Replenishing the malaria drug discovery pipeline: Screening and hit evaluation of the MMV Hit Generation Library 1 (HGL1) against asexual blood stage Plasmodium falciparum ,using a nano luciferase reporter read-out” (2022):
About 540 (0.36%) of roughly 150,000 compounds showed an effect of 50% or more. Some of the results follow.

The compounds below were run on Plasmodium falciparum (assay: Primary screen in NF54 nanoGlo assay, in single point, at 2uM, 72h; a lower Z score goes with more inhibition). Conditions: timepoint 72 hour.
Assay type: functional, Erythrocyte

Structure (SMILES) | % Inhibition [%] | Z score
O=C(NCc1nc(-c2cc[nH]c(=O)c2)no1)c1cccnc1 | -18 | 3.02
CCCc1nn(-c2cccc(F)c2)c(N2CCN(CC)CC2)c1CN(Cc1ccccc1F)C(C)C | -5 | 0.45
CN(CCCOCc1ccccc1)CC1(C)COC1 | -13 | 2.18
Cc1ccc(N2CCN(c3nccn4nc(-c5ccccc5C)cc34)CC2)cc1 | -9 | 1.16
N#Cc1nccnc1N1CC(Cn2nc(C3CC3)ccc2=O)C1 | -19 | 2.72
COC(=O)c1cccc(C#Cc2cccc(NC(=O)Cn3ccc(=O)[nH]c3=O)c2)c1 | 7 | -0.98
C=C1C(C(=O)N2CCN(c3ccccc3)CC2)[C@H]1C(=O)N1CCN(c2ccccc2)CC1 (stereo partly drawn) | 7 | -0.63
C[C@H](Oc1ccccc1)C(=O)Nc1nnc(CCCc2ccccc2)s1 | -8 | 1.54
N[C@H]1C[C@@H](c2cc(N3CCN(C4CCCCC4)CC3)nc(N3CCCC3)n2)C1 | 56 | -8.12
CCOc1cc([C@H]2Nc3ccccc3C(=O)N2c2ccc(C)cc2)ccc1OCc1ccc(F)cc1 | -5 | 0.59
C[C@@H]1NC(=O)N(C2CCN(Cc3ccccc3)CC2)C1=O | -3 | 0.44
CCNC(=O)c1cccc(C)c1OCCc1scnc1C | -8 | 0.89
Cc1nc(C)c(CCNC(=O)NC2CC3CC2C2CCCC32)s1 (stereo not drawn) | -19 | 2
Cc1cc(C)n(Cc2nnc(N3CCC(C(C)(C)C)C3)n2CC2CCCO2)n1 (stereo not drawn) | -5 | 0.82
O=C(c1cnc2ccccc2n1)N1CC(Nc2ccncn2)C1 | -20 | 2.34
COc1ncccc1-c1nc(CC2CCN(C)CC2)nn1CC(F)(F)F | 8 | -1.27
c1cc(Nc2ccc3nnnn3n2)cc(N2CCCCCC2)c1 | 10 | -1.22
CN1CN(C(=O)c2snnc2C2CC2)CC1=O | -10 | 1.5
O=C(CCc1nc2ccccc2c(=O)[nH]1)Nc1ccncc1 | -12 | 1.65
CC1CC(c2ccccc2)C(C)N1C(=O)Cn1cccn1 (stereo not drawn) | 2 | -0.39
N#Cc1cnc(NC[C@H]2CCCc3cccnc32)c(F)c1 | -15 | 2.44
O[C@H](COc1cccc2[nH]ccc12)Cn1nnc(-c2cccs2)n1 | -12 | 1.22
Nc1nnc(-c2noc(-c3ccccc3)n2)o1 | -8 | 0.91
CCn1ncc2cc(C(=O)N3CCC[C@H]3c3ncon3)c(C)nc21 | -4 | 0.78
